Measurements as given in paper PMC10312975 (Research Square, 2023).
No constants are given. Whether binding was seen depends on the method and setting. For part of these data: In cells and extracts the contact can be indirect. Some results given as binding are weak or reduced against the parent protein; the word gives no strength.

Sequences of proteins named here, by UniProt entry; tags and fusion partners are left off. A change or cut given only in a name is not applied to a line headed by its entry.
UniProt O60826: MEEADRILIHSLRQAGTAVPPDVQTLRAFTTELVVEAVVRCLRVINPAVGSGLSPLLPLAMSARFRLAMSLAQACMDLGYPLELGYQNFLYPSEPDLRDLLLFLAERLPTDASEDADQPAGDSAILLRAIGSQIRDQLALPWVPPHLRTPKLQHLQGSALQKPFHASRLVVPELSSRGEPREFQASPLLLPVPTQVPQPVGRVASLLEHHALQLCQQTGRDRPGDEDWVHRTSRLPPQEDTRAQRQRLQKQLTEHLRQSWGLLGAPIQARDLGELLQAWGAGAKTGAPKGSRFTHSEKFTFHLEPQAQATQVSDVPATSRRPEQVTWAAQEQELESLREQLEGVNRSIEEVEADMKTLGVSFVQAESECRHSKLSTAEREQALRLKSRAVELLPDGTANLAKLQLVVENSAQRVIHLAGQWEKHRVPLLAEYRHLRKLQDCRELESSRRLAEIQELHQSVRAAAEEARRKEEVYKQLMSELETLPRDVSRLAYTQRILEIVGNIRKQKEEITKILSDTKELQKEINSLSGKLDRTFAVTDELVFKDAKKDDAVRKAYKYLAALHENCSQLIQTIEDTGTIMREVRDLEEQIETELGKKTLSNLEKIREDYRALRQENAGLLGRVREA
UniProt Q567U6: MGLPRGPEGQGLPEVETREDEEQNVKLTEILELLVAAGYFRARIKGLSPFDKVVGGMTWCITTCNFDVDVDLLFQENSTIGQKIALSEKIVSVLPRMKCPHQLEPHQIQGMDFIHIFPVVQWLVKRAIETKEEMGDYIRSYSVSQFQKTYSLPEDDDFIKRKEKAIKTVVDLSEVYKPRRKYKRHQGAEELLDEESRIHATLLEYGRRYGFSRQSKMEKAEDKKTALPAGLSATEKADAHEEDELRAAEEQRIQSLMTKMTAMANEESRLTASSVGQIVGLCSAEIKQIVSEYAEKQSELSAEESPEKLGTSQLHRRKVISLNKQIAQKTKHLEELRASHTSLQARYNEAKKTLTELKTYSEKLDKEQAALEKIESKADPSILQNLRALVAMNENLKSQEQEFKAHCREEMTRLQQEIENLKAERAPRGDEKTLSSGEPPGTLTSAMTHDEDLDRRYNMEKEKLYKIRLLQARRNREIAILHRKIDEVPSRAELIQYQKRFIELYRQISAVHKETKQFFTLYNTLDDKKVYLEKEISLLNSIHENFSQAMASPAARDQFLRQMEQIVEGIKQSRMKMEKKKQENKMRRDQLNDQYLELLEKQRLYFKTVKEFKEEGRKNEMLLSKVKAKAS
UniProt Q9H0A8: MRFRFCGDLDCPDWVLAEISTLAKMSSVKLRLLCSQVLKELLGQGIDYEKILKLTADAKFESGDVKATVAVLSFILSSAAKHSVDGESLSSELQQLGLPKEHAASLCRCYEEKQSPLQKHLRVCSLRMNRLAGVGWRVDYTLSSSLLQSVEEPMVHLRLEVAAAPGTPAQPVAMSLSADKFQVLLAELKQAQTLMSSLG
UniProt Q9GZQ3: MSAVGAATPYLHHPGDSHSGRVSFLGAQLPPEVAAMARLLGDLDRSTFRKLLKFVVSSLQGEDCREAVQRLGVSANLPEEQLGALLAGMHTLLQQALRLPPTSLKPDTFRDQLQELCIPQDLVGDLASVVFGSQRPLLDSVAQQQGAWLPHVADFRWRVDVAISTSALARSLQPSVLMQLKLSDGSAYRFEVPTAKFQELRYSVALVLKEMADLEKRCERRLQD
UniProt Q7Z4G1: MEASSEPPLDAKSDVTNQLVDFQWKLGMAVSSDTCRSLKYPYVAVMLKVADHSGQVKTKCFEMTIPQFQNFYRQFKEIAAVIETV
UniProt Q86VX2: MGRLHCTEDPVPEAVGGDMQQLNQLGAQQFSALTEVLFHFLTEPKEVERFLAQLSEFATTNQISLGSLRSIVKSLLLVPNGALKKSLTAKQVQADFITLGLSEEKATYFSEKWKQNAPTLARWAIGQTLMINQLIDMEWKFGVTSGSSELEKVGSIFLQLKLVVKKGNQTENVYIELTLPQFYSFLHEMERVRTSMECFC
UniProt Q9NX08: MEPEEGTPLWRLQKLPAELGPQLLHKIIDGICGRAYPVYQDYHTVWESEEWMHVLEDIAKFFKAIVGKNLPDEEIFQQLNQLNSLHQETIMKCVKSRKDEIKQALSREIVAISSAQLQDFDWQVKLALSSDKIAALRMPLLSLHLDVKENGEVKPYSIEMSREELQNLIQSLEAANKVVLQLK
UniProt Q9P000: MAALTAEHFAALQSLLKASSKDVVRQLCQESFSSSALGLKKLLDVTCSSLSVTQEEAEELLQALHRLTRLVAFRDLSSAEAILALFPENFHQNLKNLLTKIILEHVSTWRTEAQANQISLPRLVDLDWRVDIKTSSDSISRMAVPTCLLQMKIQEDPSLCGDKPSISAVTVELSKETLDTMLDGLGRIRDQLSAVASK
UniProt Q9Y6G5: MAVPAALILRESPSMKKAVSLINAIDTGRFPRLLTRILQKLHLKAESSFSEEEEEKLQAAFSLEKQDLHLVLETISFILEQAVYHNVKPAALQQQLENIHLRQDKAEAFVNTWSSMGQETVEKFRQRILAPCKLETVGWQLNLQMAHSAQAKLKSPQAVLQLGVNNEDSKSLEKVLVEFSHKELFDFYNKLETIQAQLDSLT

Tests used:
[1] = target: CCDC22 F164D, expressed in HEK293T (human) (UniProt O60826); experiment: co-IP; proteins expressed by transfection in HEK293T; Triton X-100 lysis buffer (25 mM HEPES, 100 mM NaCl, 10 mM DTT, 1 mM EDTA, 10% glycerol, 1% Triton X-100); immunoprecipitation of the expressed protein, immunoblot of partners
[2] = target: CCDC22 W142D, expressed in HEK293T (human) (UniProt O60826); experiment: as above
[3] = target: CCDC22 wild type, expressed in HEK293T (human) (UniProt O60826); experiment: as above
[4] = target: HA-tagged VPS35L G902E, stably expressed in VPS35L knockout Huh-7 cells (human) (UniProt Q7Z3J2); experiment: co-IP; VPS35L knockout Huh-7 cells stably expressing HA-tagged VPS35L variants; immunoprecipitation of VPS35L, western blot
[5] = target: HA-tagged VPS35L S829E, stably expressed in VPS35L knockout Huh-7 cells (human) (UniProt Q7Z3J2); experiment: as above
[6] = target: HA-tagged VPS35L W6D, stably expressed in VPS35L knockout Huh-7 cells (human) (UniProt Q7Z3J2); experiment: as above
[7] = target: HA-tagged VPS35L G902E, stably expressed in VPS35L knockout Huh-7 cells (human) (UniProt Q7Z3J2); experiment: native gel or EMSA; HA immunoprecipitation from stable Huh-7 lines (MRB buffer), elution with HA peptide, blue native 3-12% gel, immunoblot
[8] = target: HA-tagged VPS35L S829E, stably expressed in VPS35L knockout Huh-7 cells (human) (UniProt Q7Z3J2); experiment: as above
[9] = target: HA-tagged VPS35L W6D, stably expressed in VPS35L knockout Huh-7 cells (human) (UniProt Q7Z3J2); experiment: as above
[10] = target: VPS35L G902E (cancer-derived), expressed in HEK293T (human) (UniProt Q7Z3J2); experiment: co-IP; proteins expressed by transfection in HEK293T; Triton X-100 lysis buffer (25 mM HEPES, 100 mM NaCl, 10 mM DTT, 1 mM EDTA, 10% glycerol, 1% Triton X-100); immunoprecipitation of the expressed protein, immunoblot of partners
[11] = target: VPS35L S829E, expressed in HEK293T (human) (UniProt Q7Z3J2); experiment: as above
[12] = target: VPS35L W6D, expressed in HEK293T (human) (UniProt Q7Z3J2); experiment: as above
[13] = target: VPS35L Δ10, expressed in HEK293T (human) (UniProt Q7Z3J2); experiment: as above
[14] = target: CCDC22 R490D, expressed in HEK293T (human) (UniProt O60826); experiment: as above
[15] = target: CCDC22 V501R, expressed in HEK293T (human) (UniProt O60826); experiment: as above
[16] = target: CCDC93 E410R, expressed in HEK293T (human) (UniProt Q567U6); experiment: as above
[17] = target: CCDC93 E410R/F403D, expressed in HEK293T (human) (UniProt Q567U6); experiment: as above
[18] = target: CCDC93 R483E, expressed in HEK293T (human) (UniProt Q567U6); experiment: as above
[19] = target: CCDC93 R483E/A492W, expressed in HEK293T (human) (UniProt Q567U6); experiment: as above
[20] = target: CCDC93 wild type, expressed in HEK293T (human) (UniProt Q567U6); experiment: as above
[21] = target: VPS35L A703W, expressed in HEK293T (human) (UniProt Q7Z3J2); experiment: as above
[22] = target: HA-tagged VPS35L G325E, stably expressed in VPS35L knockout Huh-7 cells (human) (UniProt Q7Z3J2); experiment: co-IP; VPS35L knockout Huh-7 cells stably expressing HA-tagged VPS35L variants; immunoprecipitation of VPS35L, western blot
[23] = target: HA-tagged VPS35L wild type, stably expressed in VPS35L knockout Huh-7 cells (human) (UniProt Q7Z3J2); experiment: as above
[24] = target: VPS35L G325E (cancer-derived), expressed in HEK293T (human) (UniProt Q7Z3J2); experiment: co-IP; proteins expressed by transfection in HEK293T; Triton X-100 lysis buffer (25 mM HEPES, 100 mM NaCl, 10 mM DTT, 1 mM EDTA, 10% glycerol, 1% Triton X-100); immunoprecipitation of the expressed protein, immunoblot of partners
[25] = target: VPS35L lacking the first 100 amino acids, expressed in HEK293T (human) (UniProt Q7Z3J2); experiment: as above
[26] = target: VPS35L wild type, expressed in HEK293T (human) (UniProt Q7Z3J2); experiment: as above
[27] = target: VPS35L, full length, untagged (subunit of recombinant Retriever) (human) (UniProt Q7Z3J2); experiment: cryo-EM structure; purified Retriever, 0.25 mg/ml in 10 mM HEPES pH 7.0, 150 mM NaCl, 2 mM MgCl2, 2 mM DTT, 5% glycerol; single particle reconstruction; both purified

CCDC93 (endogenous) (from UniProt Q567U6 1-631)
binding [1]: binds | binding [2]: binds | binding [3]: binds

COMMD1 (endogenous) (from UniProt Q8N668 1-190)
binding [4]: no binding | binding [5]: no binding | binding [6]: no binding | binding [7]: no binding | binding [8]: no binding | binding [9]: no binding | binding [1]: no binding | binding [2]: binds | binding [3]: binds | binding [10]: no binding | binding [11]: no binding | binding [12]: no binding | binding [13]: no binding

COMMD4 (endogenous) (from UniProt Q9H0A8 1-199)
binding [1]: no binding | binding [2]: binds | binding [3]: binds

COMMD5 (endogenous) (from UniProt Q9GZQ3 1-224)
binding [1]: no binding | binding [3]: binds

COMMD6 (endogenous) (from UniProt Q7Z4G1 1-85)
binding [1]: no binding | binding [2]: binds | binding [3]: binds

COMMD7 (endogenous) (from UniProt Q86VX2 1-200)
binding [1]: no binding | binding [3]: binds

COMMD8 (endogenous) (from UniProt Q9NX08 1-183)
binding [1]: no binding | binding [2]: binds | binding [3]: binds

COMMD9 (endogenous) (from UniProt Q9P000 1-198)
binding [1]: no binding | binding [3]: binds

COMMD10 (endogenous) (from UniProt Q9Y6G5 1-202)
binding [1]: no binding | binding [3]: binds

DENND10 (endogenous) (from UniProt Q8TCE6 1-357)
binding [4]: no binding | binding [5]: no binding | binding [6]: no binding | binding [1]: binds | binding [14]: binds | binding [15]: binds | binding [2]: binds | binding [3]: binds | binding [16]: binds | binding [17]: no binding | binding [18]: binds | binding [19]: binds | binding [20]: binds | binding [21]: no binding | binding [10]: no binding | binding [11]: no binding | binding [12]: no binding | binding [13]: no binding

VPS26C (endogenous) (from UniProt O14972 1-297)
binding [22]: no binding | binding [4]: binds | binding [5]: binds | binding [6]: binds | binding [23]: binds | binding [24]: no binding | binding [10]: binds | binding [11]: binds | binding [12]: binds | binding [25]: binds | binding [26]: binds

VPS26C, full length, untagged (subunit of recombinant Retriever) (from UniProt O14972 1-297)
binding [27]: binds
